# Measurements as given in article PMC6919601, “Identification of Plasmodium dipeptidyl aminopeptidase allosteric inhibitors by high throughput screening” (PLoS ONE, 2019).
# “And” between values parts separate entries of the source, which are not always exact repeats. Equal entries are not always repeated. Screen size: about 110,000 compounds; about 230 (0.21%) showed an effect of 50% or more. The list shows a part of the results.
# Target: DPAP1 (Plasmodium falciparum, UniProt Q8IIJ9)
# Assay: primary screen, percent inhibition; read by cleavage of a fluorogenic dipeptide substrate; higher = more effect of the substance
# Design: species or system P. falciparum D10 trophozoite lysates; single well
# 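Also: 30 min substrate incubation versus DMSO and 10 µM JCP410 controls.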
# DPAP1, sequence (Q8IIJ9 whole entry, looked up): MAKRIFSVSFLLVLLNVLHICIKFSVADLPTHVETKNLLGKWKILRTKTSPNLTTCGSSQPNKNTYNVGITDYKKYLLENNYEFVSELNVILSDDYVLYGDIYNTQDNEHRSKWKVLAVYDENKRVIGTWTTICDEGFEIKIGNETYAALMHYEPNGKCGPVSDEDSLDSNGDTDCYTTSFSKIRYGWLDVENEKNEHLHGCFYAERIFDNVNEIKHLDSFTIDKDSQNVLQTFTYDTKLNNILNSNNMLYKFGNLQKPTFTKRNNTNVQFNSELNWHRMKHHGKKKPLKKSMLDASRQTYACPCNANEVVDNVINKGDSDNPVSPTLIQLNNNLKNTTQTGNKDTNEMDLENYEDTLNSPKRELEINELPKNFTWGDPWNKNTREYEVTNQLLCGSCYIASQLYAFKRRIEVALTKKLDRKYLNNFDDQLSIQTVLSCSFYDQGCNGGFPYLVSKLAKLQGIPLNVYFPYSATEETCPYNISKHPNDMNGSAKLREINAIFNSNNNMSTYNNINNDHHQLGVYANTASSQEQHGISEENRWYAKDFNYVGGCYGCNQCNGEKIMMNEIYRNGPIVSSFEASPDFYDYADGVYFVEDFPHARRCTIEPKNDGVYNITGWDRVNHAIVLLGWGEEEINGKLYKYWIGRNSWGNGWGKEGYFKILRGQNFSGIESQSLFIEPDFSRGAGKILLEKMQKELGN
row,SMILES,% Inhibition @ 10 uM
1,COc1ccc(-c2c(C)nn3c(N)c(-c4ccc(Cl)cc4)cnc23)cc1,-4.07%
2,COP(=O)(OC)C1(Nc2ccc(Cl)c(Cl)c2)CCCCC1,1.7%
3,COc1cc(OC)cc(C(=O)Nc2nc(-c3nnn(-c4ccc(Cl)cc4)c3C)ns2)c1,4.11%
4,CN(C)CCN(CCCc1ccccc1)Cc1ccccc1,1.88%
5,CC1(C(=O)O)CCC(C(=O)NCCc2ccccc2)C1(C)C (stereo not drawn),-6.29%
6,CCOC(=O)c1ccc(N2C(=O)C3CCCCC3C2=O)cc1 (stereo not drawn),1.57%
7,c1csc(-c2nc(-c3ccc(-n4cccc4)cc3)no2)c1,4.19%
8,CCOC(=O)C1CCN(Cc2ccccc2Br)CC1,-5.41%
9,O=C(O)Cn1cccc1/C=N\c1nnc(N2CCCCCC2)s1,-2.14%
10,COc1cc2oc(=O)c(CC(=O)NCc3ccco3)c(C)c2cc1Cl,-2.57%
11,CCOC(=O)c1c(C)[nH]c(C)c1S(=O)(=O)NCCSCc1ccco1,-7.66%
12,OCC1CCCCN1Cc1ccc(-c2ccccc2)cc1 (stereo not drawn),5.01%
13,CN(C(=S)NC1CCS(=O)(=O)C1)C1CCCCC1 (stereo not drawn),7.26%
14,Cc1noc2ncnc(NCCc3ccc(Cl)cc3)c12,-2.34%
15,CCCCN(C)c1cc(C)nc2c(-c3ccc(Cl)cc3)c(C)nn12,-0.971%
16,O=C(O)c1ccc(S(=O)(=O)N2CCOCC2)cc1,-1.29%
17,COc1ccc(CNCc2cccc(OC)c2OC)cc1Br,3.17%
18,Nc1ccc(-c2ccc3ccccc3n2)c2ccccc12,2.94%
19,O=C(Nc1ccncc1)c1ccc2ccccc2c1,-1.61%
20,Cc1ccc2c(c1)-c1onc(C(=O)NCc3ccco3)c1CO2,2.78%
21,NC(=O)c1ccc(-n2c(CCC(=O)O)ccc2-c2ccc(F)cc2)cc1,-4.98%
22,COc1ccc(Cn2c(C(=O)O)c(CNCCc3ccc(C)cc3)c3ccc(OC)cc32)cc1,9.28%

row,SMILES,% Inhibition @ 10 uM
1,N=C(NOC(=O)CCCc1ccccc1)c1ccc(Cl)cc1,0.275%
2,COc1cccc(CNC(=O)C2CCC(CNc3nc(S)nc4ccccc34)CC2)c1 (stereo not drawn),9.31%
3,COc1ccc(-c2noc(-c3c(-c4ccccc4Cl)noc3C)n2)cc1,3.66%
4,Cc1ccc(-n2nc(C)c3c(C)c(CCC(=O)NCCCN4CCCC4=O)c(C)nc32)cc1,-0.72%
5,CCCc1[nH]nc2c1C(c1ccc(N(C)C)cc1)C(C#N)=C(N)O2 (stereo not drawn),-2.87%
6,NC(=O)c1nnn(-c2nonc2N)c1CN1CCCCC1,2.8%
7,O=C1NC(=O)c2cc(-c3ccccc3)ccc21,-1.77%
8,Cc1ccc(NC(=O)c2ccc(F)cc2)c(Br)c1,3.47%
9,Cc1oc(-c2ccccc2)nc1CS(=O)CC(=O)N(C)Cc1ccccc1 (stereo not drawn),-1.89%
10,Cc1oc(-c2ccccc2F)nc1CS(=O)CC(=O)NCCN1CCCCC1C (stereo not drawn),0.475%
11,O=C(c1cc(-c2ccc3c(c2)OCO3)on1)N1CCN(Cc2ccccc2)CC1,2.4%
12,O=C(NCc1ccc2c(c1)OCO2)c1ccc(CS(=O)(=O)Cc2cccc(Cl)c2)o1,2.35%
13,CCN1C(=O)/C(=C/c2ccc(OC)cc2OC)S/C1=N/c1ccc(OC)cc1,-1.55%
14,Cn1c(=O)c2c(nc(CN3CCN(C(=O)c4ccco4)CC3)n2CCCO)n(C)c1=O,0.317%
15,O=C(NCCc1ccc(Cl)cc1)c1cc(-c2ccncc2)nc2ccccc12,-2.26%
16,CCn1c2ccccc2c2cc(CNc3ccc(Cl)cc3)ccc21,-3.35%
17,CN1CCC(NC(Cc2ccccc2)c2ccccc2)CC1 (stereo not drawn),0.217%
18,CCN(CC)CCCOc1cccc(OC)c1,5.01%
19,C[C@@H](C[C@H](NC(=O)c1ccc(-c2ccccc2Cl)cc1)C(=O)NC1(C#N)CCOCC1)c1ccccc1,-8.36%
20,COc1cc(/C=C2\N=C(c3cc(OC)c(OC)c(OC)c3)OC2=O)cc(OC)c1OC,0.607%
21,CCC(C)NC(=O)c1cc(-c2ccc(C)s2)nc2ccccc12 (stereo not drawn),-1.27%
22,CCC(C(=O)NCCCN1CCN(C2CCCCC2)CC1)n1nc(C)n2c(cc3occc32)c1=O (stereo not drawn),-3.79%

row,SMILES,% Inhibition @ 10 uM
1,COc1cccc(C(=O)Nc2cc(Br)cc3cccnc23)c1,6.8%
2,O=C(O)CNC(=S)N(Cc1ccccc1Cl)C1CCCC1,1.42%
3,N[C@@H](c1ccccc1)C(O)(c1ccccc1)c1ccccc1,-1.74%
4,N#Cc1cccc(NC(=O)/C=C/C(=O)O)c1,5.46%
5,CC1(C)CC(=NOC(=O)N2c3ccccc3CCc3ccccc32)CC(C)(C)N1,-0.687%
6,COc1ccc(CN2C(=O)C3CC=C(C)CC3C2=O)cc1 (stereo not drawn),0.275%
7,CC(C)CC(=O)Nc1ccc(N2CCCCC2)c(Cl)c1,-0.25% and -0.519%
8,CSC1=C(C#N)C(c2cccc(Oc3ccccc3)c2)CC(=O)N1 (stereo not drawn),13.2%
9,O=C(Cn1ncc2c1-c1ccccc1OC2)NCCC1=CCCCC1,1.72%
10,CC(=O)c1c(O)cc(C)o/c1=N\C1CCCCC1,1.13%
11,CCOc1ccc(-c2nc(NC(=O)c3sc(C)nc3C)sc2C)cc1,-2.71%
12,CCCOC(=O)C1=C(C)NC(=O)NC1c1cccc(Cl)c1 (stereo not drawn),0.162%
13,CCOc1ccc(-c2cc(C(=O)O)c3c(-c4ccc(F)cc4)[nH]nc3n2)cc1,-0.901%
14,O=C(O)/C=C/c1cccc(C(=O)O)c1,-6.11%
15,O=C(Nc1ccccc1C(=O)NCc1ccccc1)c1ccccc1,1.89%
16,Cc1ccc(O)c(NC(=O)CSc2ccccc2)c1,-3.43%
17,COc1ccc2cc3cc(C(=O)N(C)Cc4ccccc4)sc3nc2c1,0.402%
18,O=C(NCc1cccnc1)C1=Cc2sc3c(c2CS1)CCCC3,8.38%
19,Cc1[nH]c(C=O)c(C)c1C(=O)OCc1ccccc1,0.919%
20,CCC1=CC(C)(CC)N(Cc2ccc([N+](=O)[O-])cc2)c2cc(C)ccc21 (stereo not drawn),-8.11%
21,COC(=O)c1nnn(-c2ccccc2F)c1C(=O)OC,-3.39%
22,Cc1cccc(Cn2c(C)c(C)c3cc(C(=O)NCc4cccnc4)ccc32)c1,2.29%
